For three molecules, binding results are on record in PMC2885026.

The chains behind the UniProt entries cited, without tags or fusion partners.
UniProt P17066: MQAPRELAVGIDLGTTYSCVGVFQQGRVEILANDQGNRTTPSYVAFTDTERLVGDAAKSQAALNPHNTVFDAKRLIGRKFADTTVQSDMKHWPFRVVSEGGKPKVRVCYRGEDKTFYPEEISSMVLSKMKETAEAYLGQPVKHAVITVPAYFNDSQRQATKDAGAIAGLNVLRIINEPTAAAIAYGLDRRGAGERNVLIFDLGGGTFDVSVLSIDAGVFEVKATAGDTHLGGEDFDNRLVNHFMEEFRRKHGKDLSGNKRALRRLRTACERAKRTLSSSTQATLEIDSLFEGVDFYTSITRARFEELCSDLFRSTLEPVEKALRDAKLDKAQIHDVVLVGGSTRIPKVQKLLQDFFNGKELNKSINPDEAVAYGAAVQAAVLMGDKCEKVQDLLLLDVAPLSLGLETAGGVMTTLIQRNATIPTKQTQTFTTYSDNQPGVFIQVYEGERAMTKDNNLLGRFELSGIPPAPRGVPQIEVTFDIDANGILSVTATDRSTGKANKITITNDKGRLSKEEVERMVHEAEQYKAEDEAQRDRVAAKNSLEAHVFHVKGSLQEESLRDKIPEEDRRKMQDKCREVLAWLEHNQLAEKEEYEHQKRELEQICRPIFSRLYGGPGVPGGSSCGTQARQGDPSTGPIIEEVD

Assay [1] concerns the target T1, Epstein–Barr virus nuclear antigen (EBNA) 3A expressed from recombinant adenovirus Ad-3A (Epstein–Barr virus) (UniProt P12977).
T1 sequence: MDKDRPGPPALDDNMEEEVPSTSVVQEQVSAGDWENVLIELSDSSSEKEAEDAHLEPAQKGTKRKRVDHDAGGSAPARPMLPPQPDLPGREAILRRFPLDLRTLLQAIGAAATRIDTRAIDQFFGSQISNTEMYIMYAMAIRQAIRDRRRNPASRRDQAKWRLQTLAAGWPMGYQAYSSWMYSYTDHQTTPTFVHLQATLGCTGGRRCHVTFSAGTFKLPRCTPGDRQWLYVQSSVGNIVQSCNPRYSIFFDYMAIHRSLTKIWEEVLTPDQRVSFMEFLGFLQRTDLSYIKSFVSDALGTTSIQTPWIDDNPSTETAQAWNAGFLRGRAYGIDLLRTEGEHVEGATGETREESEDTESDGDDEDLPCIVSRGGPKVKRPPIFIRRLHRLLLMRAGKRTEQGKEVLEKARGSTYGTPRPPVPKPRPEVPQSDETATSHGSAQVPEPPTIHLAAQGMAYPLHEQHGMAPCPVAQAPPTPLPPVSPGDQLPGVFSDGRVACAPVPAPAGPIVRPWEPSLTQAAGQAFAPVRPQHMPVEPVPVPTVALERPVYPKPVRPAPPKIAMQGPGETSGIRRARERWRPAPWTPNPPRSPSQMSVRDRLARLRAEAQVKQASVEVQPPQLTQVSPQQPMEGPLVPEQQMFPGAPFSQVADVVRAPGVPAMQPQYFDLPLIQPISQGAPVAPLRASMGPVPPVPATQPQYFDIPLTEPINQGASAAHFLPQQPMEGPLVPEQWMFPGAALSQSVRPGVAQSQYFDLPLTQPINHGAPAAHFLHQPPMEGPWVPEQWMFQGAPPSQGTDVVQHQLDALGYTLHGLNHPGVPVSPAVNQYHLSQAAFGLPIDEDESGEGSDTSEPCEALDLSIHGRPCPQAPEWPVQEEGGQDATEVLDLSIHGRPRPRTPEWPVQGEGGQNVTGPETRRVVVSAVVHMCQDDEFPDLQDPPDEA
Nature of the assay: co-IP.

For assay [2], the target named is Hsp40 (DNAJA1) (human (endogenous in IMR-90 and LCLs)) (UniProt P31689). The experiment in a line: co-IP.
Assay [3] deals with Hsp70 (HspA1A) (human (endogenous in IMR-90)) (UniProt P0DMV8). The experiment in a line: co-IP.
Assay [4] concerns the target Hsp70B′ (HspA6) (human (endogenous in IMR-90 and LCLs)) (UniProt P17066). Nature of the assay: co-IP.
Assay [5] has as its target Hsp90α (human (endogenous in IMR-90 and ED-LCL)) (UniProt P07900). The experiment in a line: co-IP.
The target in assay [6] is Bag3 (human (endogenous in LCLs)) (UniProt O95817). Nature of the assay: co-IP; a second independent LCL; data not shown.
Assay [7] concerns the target Hsp40 (DNAJA1) (human (endogenous in IMR-90 and LCLs)) (UniProt P31689). The experiment in a line: co-IP; a second independent LCL; data not shown.
Assay [8] addresses Hsp70B′ (HspA6) (human (endogenous in IMR-90 and LCLs)) (UniProt P17066). Nature of the assay: co-IP; a second independent LCL; data not shown.
The target in assay [9] is Bag3 (human (endogenous in LCLs)) (UniProt O95817). The experiment in a line: co-IP; ED-LCL; 200 μg of protein immunoprecipitated with a 1:100 dilution of anti-Hsp antibodies, Western blot with anti-EBNA3A. (In general: In western blotting, separated proteins are transferred to a membrane and probed.)
In assay [10] the target is Hsp40 (DNAJA1) (human (endogenous in IMR-90 and LCLs)) (UniProt P31689). The description is as above.
Assay [11] addresses Hsp70B′ (HspA6) (human (endogenous in IMR-90 and LCLs)) (UniProt P17066). The assay is described as above.
The target in assay [12] is Hsp90α (human (endogenous in IMR-90 and ED-LCL)) (UniProt P07900). The description is as above.

No constants are given. Whether binding was seen depends on the method and setting. In cells and extracts the contact can be indirect. Some binding calls cover weakened binding; strength is not graded here. For part of these data: Where a sequence is shown, tags or fusion partners need not be part of it.

Regarding “Hsp70 (HspA1A) (from UniProt P0DMV8 1-641)”, the binding result in assay [1] is “binds”.

B1: Epstein–Barr virus nuclear antigen (EBNA) 3A expressed from recombinant adenovirus Ad-3A (protein, UniProt P12977 1-944)
chain: MDKDRPGPPALDDNMEEEVPSTSVVQEQVSAGDWENVLIELSDSSSEKEAEDAHLEPAQKGTKRKRVDHDAGGSAPARPMLPPQPDLPGREAILRRFPLDLRTLLQAIGAAATRIDTRAIDQFFGSQISNTEMYIMYAMAIRQAIRDRRRNPASRRDQAKWRLQTLAAGWPMGYQAYSSWMYSYTDHQTTPTFVHLQATLGCTGGRRCHVTFSAGTFKLPRCTPGDRQWLYVQSSVGNIVQSCNPRYSIFFDYMAIHRSLTKIWEEVLTPDQRVSFMEFLGFLQRTDLSYIKSFVSDALGTTSIQTPWIDDNPSTETAQAWNAGFLRGRAYGIDLLRTEGEHVEGATGETREESEDTESDGDDEDLPCIVSRGGPKVKRPPIFIRRLHRLLLMRAGKRTEQGKEVLEKARGSTYGTPRPPVPKPRPEVPQSDETATSHGSAQVPEPPTIHLAAQGMAYPLHEQHGMAPCPVAQAPPTPLPPVSPGDQLPGVFSDGRVACAPVPAPAGPIVRPWEPSLTQAAGQAFAPVRPQHMPVEPVPVPTVALERPVYPKPVRPAPPKIAMQGPGETSGIRRARERWRPAPWTPNPPRSPSQMSVRDRLARLRAEAQVKQASVEVQPPQLTQVSPQQPMEGPLVPEQQMFPGAPFSQVADVVRAPGVPAMQPQYFDLPLIQPISQGAPVAPLRASMGPVPPVPATQPQYFDIPLTEPINQGASAAHFLPQQPMEGPLVPEQWMFPGAALSQSVRPGVAQSQYFDLPLTQPINHGAPAAHFLHQPPMEGPWVPEQWMFQGAPPSQGTDVVQHQLDALGYTLHGLNHPGVPVSPAVNQYHLSQAAFGLPIDEDESGEGSDTSEPCEALDLSIHGRPCPQAPEWPVQEEGGQDATEVLDLSIHGRPRPRTPEWPVQGEGGQNVTGPETRRVVVSAVVHMCQDDEFPDLQDPPDEA
Take B1: the binding result in [2] is “binds”; in assay [3] it was “binds”; in [4], “binds”; in assay [5] it was “no binding”.

B2: EBNA3A expressed in lymphoblastoid cell lines (protein, UniProt P12977 1-944)
chain: MDKDRPGPPALDDNMEEEVPSTSVVQEQVSAGDWENVLIELSDSSSEKEAEDAHLEPAQKGTKRKRVDHDAGGSAPARPMLPPQPDLPGREAILRRFPLDLRTLLQAIGAAATRIDTRAIDQFFGSQISNTEMYIMYAMAIRQAIRDRRRNPASRRDQAKWRLQTLAAGWPMGYQAYSSWMYSYTDHQTTPTFVHLQATLGCTGGRRCHVTFSAGTFKLPRCTPGDRQWLYVQSSVGNIVQSCNPRYSIFFDYMAIHRSLTKIWEEVLTPDQRVSFMEFLGFLQRTDLSYIKSFVSDALGTTSIQTPWIDDNPSTETAQAWNAGFLRGRAYGIDLLRTEGEHVEGATGETREESEDTESDGDDEDLPCIVSRGGPKVKRPPIFIRRLHRLLLMRAGKRTEQGKEVLEKARGSTYGTPRPPVPKPRPEVPQSDETATSHGSAQVPEPPTIHLAAQGMAYPLHEQHGMAPCPVAQAPPTPLPPVSPGDQLPGVFSDGRVACAPVPAPAGPIVRPWEPSLTQAAGQAFAPVRPQHMPVEPVPVPTVALERPVYPKPVRPAPPKIAMQGPGETSGIRRARERWRPAPWTPNPPRSPSQMSVRDRLARLRAEAQVKQASVEVQPPQLTQVSPQQPMEGPLVPEQQMFPGAPFSQVADVVRAPGVPAMQPQYFDLPLIQPISQGAPVAPLRASMGPVPPVPATQPQYFDIPLTEPINQGASAAHFLPQQPMEGPLVPEQWMFPGAALSQSVRPGVAQSQYFDLPLTQPINHGAPAAHFLHQPPMEGPWVPEQWMFQGAPPSQGTDVVQHQLDALGYTLHGLNHPGVPVSPAVNQYHLSQAAFGLPIDEDESGEGSDTSEPCEALDLSIHGRPCPQAPEWPVQEEGGQDATEVLDLSIHGRPRPRTPEWPVQGEGGQNVTGPETRRVVVSAVVHMCQDDEFPDLQDPPDEA
Take B2: the binding entry in assay [6], in [7], in assay [8], in assay [9], in [10] and in [11] was “binds weakly” throughout. The binding result in [12] was “no binding”.
